# Reference: the supplement of paper PMC8728848
# This is one part of the list.
# What was measured:
# Assay in all cases: glycan array binding signal (z-score within array); higher = stronger binding
# Conditions in all cases: glycan notation: IUPAC condensed, linker removed
# [1] = molecular target: Neu5Ac9Ac(a2-3)Gal(b1-4)GlcNAc
# Summary of the method: (§1)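 Glycan array data came from 3228 arrays in the Consortium for Functional Glycomics database, and only arrays with an available protein sequence were kept. Glycan names were put into IUPAC-condensed notation, and columns mapping to the same glycan were averaged. The binding signal is a within-array Z-score, averaged across arrays of one protein sequence run at different concentrations or buffers and across linkers. A negative Z-score can be read as non-binding.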
# [2] = molecular target: Neu5Ac9Ac(a2-6)Gal(b1-4)GlcNAc
# Summary of the method: as §1
# [3] = molecular target: Neu5Gc(a2-3)Gal(b1-3)GlcNAc
# Summary of the method: as §1
# [4] = molecular target: Neu5Gc(a2-3)Gal(b1-3)[Fuc(a1-4)]GlcNAc
# Summary of the method: as §1
# Neu5Gc(a2-3)Gal(b1-4)Glc = molecular target: Neu5Gc(a2-3)Gal(b1-4)Glc
# Summary of the method: as §1
# [5] = molecular target: Neu5Gc(a2-3)Gal(b1-4)GlcNAc
# Summary of the method: as §1
# [6] = molecular target: Neu5Gc(a2-3)Gal(b1-4)GlcNAc(b1-3)Gal(b1-4)GlcNAc(b1-2)Man(a1-3)[Neu5Gc(a2-3)Gal(b1-4)GlcNAc(b1-3)Gal(b1-4)GlcNAc(b1-2)Man(a1-6)]Man(b1-4)GlcNAc(b1-4)GlcNAc
# Summary of the method: as §1
# [7] = molecular target: Neu5Gc(a2-3)Gal(b1-4)[Fuc(a1-3)]GlcNAc
# Summary of the method: as §1
# [8] = molecular target: Neu5Gc(a2-6)Gal(b1-4)GlcNAc
# Summary of the method: as §1
# Neu5Gc(a2-6)GalNAc = molecular target: Neu5Gc(a2-6)GalNAc
# Summary of the method: as §1
# [9] = molecular target: Neu5Gc(a2-8)Neu5Ac(a2-3)Gal(b1-4)GlcNAc
# Summary of the method: as §1
# [10] = molecular target: Neu5Gc(a2-8)Neu5Gc(a2-3)Gal(b1-4)GlcNAc
# Summary of the method: as §1
# [11] = molecular target: Neu5Gc(a2-8)Neu5Gc(a2-3)Gal(b1-4)GlcNAc(b1-3)Gal(b1-4)GlcNAc
# Summary of the method: as §1
# [12] = molecular target: Neu5Gc(a2-8)Neu5Gc(a2-6)Gal(b1-4)GlcNAc
# Summary of the method: as §1
# [13] = molecular target: Neu5Gc(b2-6)Gal(b1-4)GlcNAc
# Summary of the method: as §1
binder,measurement,setting,value
"BDCA-2 (Homo sapiens), Q8WTT0 (protein) MVPEEEPQDREKGLWWFQLKVWSMAVVSILLLSVCFTVSSVVPHNFMYSKTVKRLSKLREYQQYHPSLTCVMEGKDIEDWSCCPTPWTSFQSSCYFISTGMQSWTKSQKNCSVMGADLVVINTREEQDFIIQNLKRNSSYFLGLSDPGGRRHWQWVDQTPYNENVTFWHSGEPNNLDERCAIINFRSSEEWGWNDIHCHVPQKSICKMKKIYI",glycan array binding signal (z-score),[1],-0.138
same,glycan array binding signal (z-score),[2],-0.297
same,glycan array binding signal (z-score),[3],-0.239
same,glycan array binding signal (z-score),[4],-0.245
same,glycan array binding signal (z-score),Neu5Gc(a2-3)Gal(b1-4)Glc,-0.115
same,glycan array binding signal (z-score),[5],-0.267
same,glycan array binding signal (z-score),[6],-0.153
same,glycan array binding signal (z-score),[7],-0.238
same,glycan array binding signal (z-score),[8],-0.282
same,glycan array binding signal (z-score),Neu5Gc(a2-6)GalNAc,-0.148
same,glycan array binding signal (z-score),[9],-0.154
same,glycan array binding signal (z-score),[10],-0.189
same,glycan array binding signal (z-score),[11],-0.184
same,glycan array binding signal (z-score),[12],-0.175
same,glycan array binding signal (z-score),[13],-0.172
